Screen size: about 410,000 compounds; about 5,000 (1.2%) were called active. Inconclusive results, whose numbers are uncertain, are shown with a selection of clear calls. Calls follow the shape of the dose curve; as a rule, active = well fitted inhibition curve with a large enough effect; inconclusive = small, poorly fitted or top-dose-only effect; inactive = no such curve, though single readings can be large or run the other way. Potencies beside an inconclusive call are fits to weak or partial responses and may not hold up.
test: qHTS for Inhibitors of TGF-b; settings: HepG2 CAGA-GFP TGF-b/SMAD3 reporter, GFP fluorescence, 18 h, TGF-beta stimulated, 500 pg/mL final; series mostly up to 46.1 µM; activity, negative = inhibition: at the top concentration; also: nearly all actives have a fitted effect of over 65% in size
Summary of the method: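 HEPG2 CAGA-GFP, 1000 cells/well; 2 h settle, 37 C; cpd via pin tool; TGF-b 500 pg/mL final; 18 h, 37 C; GFP imaging ex488/em500-530; %Activity normalised to -TGF-b and +DMSO controls; CRC fit, curve class.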
% is scaled to controls: 0 for no effect and ±100 for the full control effect; potency is read from the fitted curve at half-maximal effect; tags tell the direction and shape of the fitted curve.

| SMILES | Potency | activity, negative = inhibition |
| --- | --- | --- |
| O=C(C[n+]1ccncc1)c1cccc([N+](=O)[O-])c1 | inconclusive: 1.26 µM [inhibitor, partial curve, poor fit] |  |
| CCc1c(C)nc2c(-c3ccccc3)c(C)nn2c1Nc1ccc(NC(C)=O)cc1 | inconclusive: 25.1 µM [inhibitor, single point] |  |
| CCc1nnc(N/N=C/c2ccc(-c3ccc([N+](=O)[O-])cc3)o2)n1N | inconclusive: 28.2 µM [inhibitor, single point] |  |
| COc1ccc(NC(=O)c2ccc3c(c2)S(=O)(=O)c2ccccc2C3=O)cc1 |  | inactive: 5.27% |
| COc1ccc(/C=C/c2onc(C)c2S(=O)(=O)N2CCC(C(=O)N3CCCCCC3)CC2)cc1 | inconclusive: 35.5 µM [inhibitor, single point] |  |
| O=C1OCCN1C(=O)[C@H]1[C@H](c2ccccc2)C(c2cccc(Cl)c2)=NN1c1ccc(Br)cc1 | inconclusive: 17.8 µM [inhibitor, partial curve] |  |
| Cc1ccc(CNC(=O)C2CC3Cn4c(nc5ccccc54)C3N2C)o1 (stereo not drawn) |  | inactive: -23.6% |
| CC(C)(C)SCCNC(=O)c1cccc([N+](=O)[O-])c1 |  | inactive: 9.19% |
| CC(C)c1ccc(NC(=O)Nc2cc3sccc3n2C)cc1 | inconclusive: 4.47 µM [inhibitor, single point] |  |
| Cc1c(C(=O)NCc2ccc(Cl)cc2)sc2nc3n(c(=O)c12)CCC3 |  | inactive: -26.7% |
| CSCCC(NC(=O)c1ccccc1Br)C(=O)NCC(C)(C)N1CCOCC1 (stereo not drawn) | inconclusive: 35.5 µM [inhibitor, single point] |  |
| Cc1cc(C)cc(NC(=O)Cn2cc(C=O)c3ccccc32)c1 | inconclusive: 1.12 µM [inhibitor, full curve] |  |
| C=CCN(CC=C)c1ccc(/C=C/c2ccnc3ccccc23)cc1 | inconclusive: 20 µM [inhibitor, single point] |  |
| NC(Cc1ccc(C(F)(F)F)cc1)c1csc(Nc2ccc(C(=O)NCc3ccco3)cn2)n1 (stereo not drawn) | inconclusive: 35.5 µM [inhibitor, single point] |  |
| CCOC(=O)C1C(C(=O)OC)=C(C2=CCCCC2)c2ccccc2N1S(=O)(=O)C(F)(F)F (stereo not drawn) |  | inactive: -34% |
| O=C(Cn1c(=O)c2sccc2n(Cc2cccc([N+](=O)[O-])c2)c1=O)NCCc1ccccc1 | inconclusive: 17.8 µM [inhibitor, partial curve] |  |
| O=C(Nc1ccc(OC(F)F)cc1)c1cc(S(=O)(=O)N2CCOCC2)ccc1N1CCCC1 | inconclusive: 35.5 µM [inhibitor, single point] |  |
| Cc1cc(S(=O)(=O)Nc2cc(C)c(O)c(C)c2)c(C)s1 |  | inactive: -20.6% |
